From paper PMC10558455
Where a chain is given by its changes, count along the chain named. In names and notes the source's numbering stands. Results are given in words; binding and its absence hold for the method and conditions named. In cells and extracts the contact can be indirect. Some results given as binding are weak or reduced against the parent protein; the word gives no strength. For some assays here: Tags and fused reporters may be left off the sequences shown. Values belong to the binder of their own block, whether it stands above or below them.

Amino acid sequences for entries named in this document (tags omitted).
UniProt Q9UK41: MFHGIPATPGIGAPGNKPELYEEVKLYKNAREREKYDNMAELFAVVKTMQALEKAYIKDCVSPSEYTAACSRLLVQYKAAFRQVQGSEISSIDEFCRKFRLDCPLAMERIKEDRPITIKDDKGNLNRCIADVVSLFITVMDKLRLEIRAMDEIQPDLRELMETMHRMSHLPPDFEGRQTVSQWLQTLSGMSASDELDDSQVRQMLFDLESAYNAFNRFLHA
UniProt Q8NEZ2: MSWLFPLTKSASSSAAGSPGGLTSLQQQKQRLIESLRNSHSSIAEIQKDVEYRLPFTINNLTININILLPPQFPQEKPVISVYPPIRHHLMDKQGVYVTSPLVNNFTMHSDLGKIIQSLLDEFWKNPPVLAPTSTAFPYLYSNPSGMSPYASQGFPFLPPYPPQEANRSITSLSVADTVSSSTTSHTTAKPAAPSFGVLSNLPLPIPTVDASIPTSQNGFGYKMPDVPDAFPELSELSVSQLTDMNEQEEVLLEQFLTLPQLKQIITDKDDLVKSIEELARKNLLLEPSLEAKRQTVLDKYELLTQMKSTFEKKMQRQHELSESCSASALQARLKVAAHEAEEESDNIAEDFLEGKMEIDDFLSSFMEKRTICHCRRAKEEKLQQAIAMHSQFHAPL

Experiments:
[1] = molecular target: T1, recombinant VPS4A (human) (UniProt Q9UN37); assay: pull-down; E. coli BL21 (DE3) proteins; GST-tagged protein held on Glutathione Sepharose 4 Fast Flow and washed, then mixed with the cleared lysate of the MBP-tagged protein for 2 h at 4 °C in 40 mM Tris-HCl pH 7.5, 5 mM EDTA, 0.5% Triton X-100; CBB staining or immunoblot; only the target purified
T1 sequence: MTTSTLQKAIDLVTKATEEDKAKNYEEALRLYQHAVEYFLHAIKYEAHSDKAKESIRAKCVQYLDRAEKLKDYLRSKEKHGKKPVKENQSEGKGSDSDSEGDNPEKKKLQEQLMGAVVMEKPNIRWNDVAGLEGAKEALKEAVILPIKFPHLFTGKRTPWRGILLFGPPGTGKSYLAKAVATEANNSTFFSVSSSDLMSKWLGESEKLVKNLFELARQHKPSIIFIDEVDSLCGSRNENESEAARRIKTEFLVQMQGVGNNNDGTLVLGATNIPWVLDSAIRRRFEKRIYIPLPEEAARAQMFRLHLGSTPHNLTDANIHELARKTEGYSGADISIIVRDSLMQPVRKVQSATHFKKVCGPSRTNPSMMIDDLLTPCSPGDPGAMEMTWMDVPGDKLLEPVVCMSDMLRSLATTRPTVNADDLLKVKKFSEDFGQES

GFP-EAP20 (human) = molecular target: T2, GFP-EAP20 (human) (UniProt Q9BRG1); assay: co-IP
T2 sequence: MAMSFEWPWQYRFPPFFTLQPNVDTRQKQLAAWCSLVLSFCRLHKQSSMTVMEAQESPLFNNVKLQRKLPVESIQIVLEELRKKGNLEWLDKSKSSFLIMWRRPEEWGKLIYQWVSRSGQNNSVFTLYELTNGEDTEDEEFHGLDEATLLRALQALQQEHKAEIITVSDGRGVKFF

GFP-EAP30 (human) = molecular target: T3, GFP-EAP30 (human) (UniProt Q96H20); assay: co-IP
T3 sequence: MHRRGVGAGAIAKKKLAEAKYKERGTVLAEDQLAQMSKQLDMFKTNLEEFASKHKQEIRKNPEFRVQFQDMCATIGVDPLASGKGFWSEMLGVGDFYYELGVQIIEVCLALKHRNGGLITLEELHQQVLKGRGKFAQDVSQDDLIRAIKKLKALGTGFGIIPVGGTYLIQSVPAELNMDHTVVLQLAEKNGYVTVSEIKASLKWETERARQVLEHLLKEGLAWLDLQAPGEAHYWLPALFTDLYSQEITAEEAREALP

GFP-MVB12A (human) = GFP-MVB12A (human) (UniProt Q96EY5); assay: co-IP
GFP-MVB12B (human) = molecular target: T4, GFP-MVB12B (human) (UniProt Q9H7P6); assay: co-IP
T4 sequence: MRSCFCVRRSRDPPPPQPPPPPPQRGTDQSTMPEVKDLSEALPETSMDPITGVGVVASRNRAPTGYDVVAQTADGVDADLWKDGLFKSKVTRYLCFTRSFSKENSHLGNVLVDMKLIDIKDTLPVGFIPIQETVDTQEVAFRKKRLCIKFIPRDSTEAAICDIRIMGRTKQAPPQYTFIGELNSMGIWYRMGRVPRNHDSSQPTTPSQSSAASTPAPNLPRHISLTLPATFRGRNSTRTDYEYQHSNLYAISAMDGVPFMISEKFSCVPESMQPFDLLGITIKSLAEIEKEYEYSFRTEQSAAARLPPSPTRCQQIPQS

GFP-UBAP1 (human) = molecular target: T5, GFP-UBAP1 (human) (UniProt Q9NZ09); assay: co-IP
T5 sequence: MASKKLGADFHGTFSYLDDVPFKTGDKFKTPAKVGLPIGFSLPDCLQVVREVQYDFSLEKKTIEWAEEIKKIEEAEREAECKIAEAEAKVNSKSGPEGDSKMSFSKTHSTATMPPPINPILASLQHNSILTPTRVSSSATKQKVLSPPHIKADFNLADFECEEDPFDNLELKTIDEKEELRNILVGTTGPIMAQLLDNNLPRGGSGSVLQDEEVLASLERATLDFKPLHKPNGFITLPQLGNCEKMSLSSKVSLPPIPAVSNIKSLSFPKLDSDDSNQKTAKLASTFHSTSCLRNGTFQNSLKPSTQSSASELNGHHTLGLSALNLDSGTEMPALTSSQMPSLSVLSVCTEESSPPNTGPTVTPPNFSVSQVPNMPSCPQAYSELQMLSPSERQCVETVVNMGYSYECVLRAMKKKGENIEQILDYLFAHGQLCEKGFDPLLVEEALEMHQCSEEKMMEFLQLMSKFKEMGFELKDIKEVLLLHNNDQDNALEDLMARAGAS

GFP-VPS28 (human) = GFP-VPS28 (human) (UniProt Q9UK41); assay: co-IP
GFP-VPS37A (human) = GFP-VPS37A (human) (UniProt Q8NEZ2); assay: co-IP
GFP-VPS37D (human) = molecular target: T6, GFP-VPS37D (human) (UniProt Q86XT2); assay: co-IP
T6 sequence: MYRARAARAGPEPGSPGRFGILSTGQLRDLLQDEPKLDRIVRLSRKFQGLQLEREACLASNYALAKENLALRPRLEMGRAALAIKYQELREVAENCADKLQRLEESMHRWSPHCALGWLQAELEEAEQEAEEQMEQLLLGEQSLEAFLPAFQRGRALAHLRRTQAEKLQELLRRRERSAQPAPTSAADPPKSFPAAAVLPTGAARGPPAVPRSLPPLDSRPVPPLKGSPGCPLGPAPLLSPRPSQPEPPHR

[2] = molecular target: T7, endogenous Rab41 (human (endogenous in HeLa)) (UniProt Q5JT25); assay: co-IP; endogenous proteins; HeLa cells incubated without LLOMe; lysates precipitated with anti-Rab41 antibody; immunoblot
T7 sequence: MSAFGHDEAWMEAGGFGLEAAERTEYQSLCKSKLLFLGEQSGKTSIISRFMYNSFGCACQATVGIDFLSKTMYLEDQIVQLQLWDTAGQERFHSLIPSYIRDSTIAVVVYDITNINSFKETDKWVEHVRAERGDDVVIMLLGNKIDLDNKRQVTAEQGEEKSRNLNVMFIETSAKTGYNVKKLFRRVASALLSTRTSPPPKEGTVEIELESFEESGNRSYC

[3] = molecular target: T7, endogenous Rab41 (human (endogenous in HeLa)); assay: co-IP; endogenous proteins; HeLa cells incubated with LLOMe for 1 h; lysates precipitated with anti-Rab41 antibody; immunoblot
GFP-Rab41 (human) = molecular target: T8, GFP-Rab41 (human) (UniProt Q5JT25); assay: proximity ligation
T8 sequence: T7 sequence

binding [1]: binds
B1: recombinant Rab41 (protein, UniProt Q5JT25-2 1-221)
chain: T7 sequence

binding [1]: binds
B2: recombinant Rab41 T44N (GDP-locked) (protein, UniProt Q5JT25-2 1-221)
chain: T7 sequence with T44N

binding (GFP-EAP20 (human)): binds | binding (GFP-EAP30 (human)): binds | binding (GFP-MVB12A (human)): binds | binding (GFP-MVB12B (human)): binds | binding (GFP-UBAP1 (human)): binds | binding (GFP-VPS28 (human)): binds | binding (GFP-VPS37A (human)): binds | binding (GFP-VPS37D (human)): binds
B3: FLAG-Rab41 (protein, UniProt Q5JT25-2 1-221)
chain: T7 sequence

binding [1]: binds
B4: recombinant Rab41 Q89L (GTP-locked) (protein, UniProt Q5JT25-2 1-221)
chain: T7 sequence with Q89L

binding [3]: binds
B5: endogenous TOM1L2 (protein, UniProt Q6ZVM7 1-507)
chain: MEFLLGNPFSTPVGQCLEKATDGSLQSEDWTLNMEICDIINETEEGPKDAIRALKKRLNGNRNYREVMLALTVLETCVKNCGHRFHILVANRDFIDSVLVKIISPKNNPPTIVQDKVLALIQAWADAFRSSPDLTGVVHIYEELKRKGVEFPMADLDALSPIHTPQRSVPEVDPAATMPRSQSQQRTSAGSYSSPPPAPYSAPQAPALSVTGPITANSEQIARLRSELDVVRGNTKVMSEMLTEMVPGQEDSSDLELLQELNRTCRAMQQRIVELISRVSNEEVTEELLHVNDDLNNVFLRYERFERYRSGRSVQNASNGVLNEVTEDNLIDLGPGSPAVVSPMVGNTAPPSSLSSQLAGLDLGTESVSGTLSSLQQCNPRDGFDMFAQTRGNSLAEQRKTVTYEDPQAVGGLASALDNRKQSSEGIPVAQPSVMDDIEVWLRTDLKGDDLEEGVTSEEFDKFLEERAKAAEMVPDLPSPPMEAPAPASNPSGRKKPERSEDALFAL
binding [2]: no binding (condition: cells not treated with LLOMe)

binding (GFP-Rab41 (human)): binds
B6: FLAG-TOM1L2 (protein, UniProt Q6ZVM7 1-507)
chain: B5 chain
